A collection of fitness landscapes (doi:10.1126/science.1257360)
The other results are listed elsewhere or left out.

B1: PhoQ; a variant is named by its letters at X, in order, P23837 (parent)
chain: MKKLLRLFFPLSLRVRFLLATAAVVLVLSLAYGMVALIGYSVSFDKTTFRLLRGESNLFYTLAKWENNKLHVELPENIDKQSPTMTLIYDENGQLLWAQRDVPWLMKMIQPDWLKSNGFHEIEADVNDTSLLLSGDHSIQQQLQEVREDDDDAEMTHSVAVNVYPATSRMPKLTIVVVDTIPVELKSSYMVWSWFIYVLSANLLLVIPLLWVAAWWSLRPIEALAKEVRELEEHNRELLNPATTRELTSLVRNLNRLLKSERERYDKYRTTLTDLTHSLKTPLXXLQXXLRSLRSEKMSVSDAEPVMLEQISRISQQIGYYLHRASMRGGTLLSRELHPVAPLLDNLTSALNKVYQRKGVNISLDISPEISFVGEQNDFVEVMGNVLDNACKYCLEFVEISARQTDEHLYIVVEDDGPGIPLSKREVIFDRGQRVDTLRPGQGVGLAVAREITEQYEGKIVAGESMLGGARMEVIFGRQHSAPKDE

Variants of: B1
Experiment: enrichment ratio after two sorts for PhoP signalling (ratio (wild type AVST 3.29)); higher = more functional
Conditions: with PhoP (E. coli)

| Variant | enrichment ratio |
| --- | --- |
| THAH | 4.2 |
| QPFV | ≤ 0.25 |
| NYHR | ≤ 0.25 |
| TYRN | ≤ 0.25 |
| SLSF | 11.7 |
| EDRG | ≤ 0.25 |
| TIEC | 2.84 |
| QCDH | 18.8 |
| EACF | ≤ 0.25 |
| FEML | 1.01 |
| MFWD | ≤ 0.25 |
| NYVF | ≤ 0.25 |
| GRHW | ≤ 0.25 |
| SKHR | ≤ 0.25 |
| YYYP | ≤ 0.25 |
| KHHT | ≤ 0.25 |
| DDWQ | ≤ 0.25 |
| MMNL | ≤ 0.25 |
| YKSW | ≤ 0.25 |
| MLWP | ≤ 0.25 |
| AWVH | ≤ 0.25 |
| YVSC | 1.68 |
| GVYF | ≤ 0.25 |
| GSFC | ≤ 0.25 |
| QMRT | ≤ 0.25 |
| HSDE | ≤ 0.25 |

| Variant | enrichment ratio |
| --- | --- |
| DNHD | ≤ 0.25 |
| IHST | ≤ 0.25 |
| TSDI | 7.13 |
| TMPY | ≤ 0.25 |
| TVPV | 0.328 |
| QCLQ | 4.49 |
| MMQH | ≤ 0.25 |
| YDMA | ≤ 0.25 |
| WGYP | ≤ 0.25 |
| FLAT | ≤ 0.25 |
| KCFM | ≤ 0.25 |
| AYTC | 0.272 |
| QFID | ≤ 0.25 |
| TWCI | ≤ 0.25 |
| PHPL | ≤ 0.25 |
| VFII | ≤ 0.25 |
| KLMK | ≤ 0.25 |
| NCLA | 0.896 |
| YWID | ≤ 0.25 |
| SDYE | ≤ 0.25 |
| LCCI | ≤ 0.25 |
| WLVS | ≤ 0.25 |
| YPCL | ≤ 0.25 |
| KCHF | ≤ 0.25 |
| AKEL | ≤ 0.25 |
| WNLI | ≤ 0.25 |

| Variant | enrichment ratio |
| --- | --- |
| VDQR | ≤ 0.25 |
| VPVK | ≤ 0.25 |
| HSSP | ≤ 0.25 |
| EIAR | ≤ 0.25 |
| NNGC | ≤ 0.25 |
| TYLI | 1.56 |
| FRKP | ≤ 0.25 |
| RIEG | ≤ 0.25 |
| AYMI | 0.272 |
| IEWH | ≤ 0.25 |
| QHPH | ≤ 0.25 |
| IFGV | ≤ 0.25 |
| LYFI | ≤ 0.25 |
| YERA | ≤ 0.25 |
| LIRS | ≤ 0.25 |
| RVVF | ≤ 0.25 |
| WDQA | ≤ 0.25 |
| VPIM | ≤ 0.25 |
| EHHS | ≤ 0.25 |
| IFNM | ≤ 0.25 |
| IDVY | ≤ 0.25 |
| VSGC | ≤ 0.25 |
| RPED | ≤ 0.25 |
| KDQP | ≤ 0.25 |
| YSYF | ≤ 0.25 |
| SRWQ | ≤ 0.25 |

| Variant | enrichment ratio |
| --- | --- |
| MTMH | ≤ 0.25 |
| DDNV | ≤ 0.25 |
| REPI | ≤ 0.25 |
| HEHH | ≤ 0.25 |
| DSGE | ≤ 0.25 |
| GLDR | ≤ 0.25 |
| DCLY | ≤ 0.25 |
| TTVH | 0.84 |
| MWYH | ≤ 0.25 |
| NEQP | ≤ 0.25 |
| IKFQ | ≤ 0.25 |
| HKFW | ≤ 0.25 |
| TGIV | ≤ 0.25 |
| KVPI | ≤ 0.25 |
| HNMR | ≤ 0.25 |
| QITA | ≤ 0.25 |
| RTMW | ≤ 0.25 |
| SVTL | 12.2 |
| NSQG | ≤ 0.25 |
| VMQH | ≤ 0.25 |
| RFYS | ≤ 0.25 |
| VCCI | ≤ 0.25 |
| ADQA | ≤ 0.25 |
| LDWA | ≤ 0.25 |
| PSGL | ≤ 0.25 |
| RPKW | ≤ 0.25 |

| Variant | enrichment ratio |
| --- | --- |
| VKVE | ≤ 0.25 |
| FFEP | ≤ 0.25 |
| ALHV | ≤ 0.25 |
| YDLL | ≤ 0.25 |
| CRFF | ≤ 0.25 |
| QEEY | ≤ 0.25 |
| QWLD | ≤ 0.25 |
| LMEQ | ≤ 0.25 |
| TNAR | ≤ 0.25 |
| DYPP | ≤ 0.25 |
| RHPM | ≤ 0.25 |
| QNNP | ≤ 0.25 |
| TIVH | ≤ 0.25 |
| FNMD | ≤ 0.25 |
| AYEP | ≤ 0.25 |
| RGPA | ≤ 0.25 |
| QICW | ≤ 0.25 |
| FLQH | ≤ 0.25 |
| PNTM | ≤ 0.25 |
| LFKP | ≤ 0.25 |
| ALDR | ≤ 0.25 |
| LMHY | ≤ 0.25 |
| WDID | ≤ 0.25 |
| HHVR | ≤ 0.25 |
| NCTN | ≤ 0.25 |
| GTCT | ≤ 0.25 |

| Variant | enrichment ratio |
| --- | --- |
| WPHY | ≤ 0.25 |
| DLCF | ≤ 0.25 |
| AQAH | 0.951 |
| LVHV | ≤ 0.25 |
| IFPC | ≤ 0.25 |
| IAEG | ≤ 0.25 |
| LERL | ≤ 0.25 |
| MRAE | ≤ 0.25 |
| HHTI | ≤ 0.25 |
| EKSY | ≤ 0.25 |
| AYGN | ≤ 0.25 |
| MKGL | ≤ 0.25 |
| MCRT | ≤ 0.25 |
| WRDW | ≤ 0.25 |
| HVVR | ≤ 0.25 |
| HSTM | 13.1 |
| SVFQ | ≤ 0.25 |
| NENT | ≤ 0.25 |
| NQRM | ≤ 0.25 |
| FIKD | ≤ 0.25 |
| TGTE | 4.09 |
| PRPF | ≤ 0.25 |
| SSPT | ≤ 0.25 |
